Source: patent US20240335465A1 (UNIVERSITY OF VIRGINIA PATENT FOUNDATION, published 2024)

Biological target: endogenous ATM in immortalized MEFs (mouse, UniProt Q62388 2-3066)
Assay: co-immunoprecipitation: anti-HA IP from HA-cGAS-reconstituted cGAS-/- MEFs with or without doxorubicin, immunoblot for ATM

Chain of UniProt Q62388 (Q62388 2-3066 limits assumed): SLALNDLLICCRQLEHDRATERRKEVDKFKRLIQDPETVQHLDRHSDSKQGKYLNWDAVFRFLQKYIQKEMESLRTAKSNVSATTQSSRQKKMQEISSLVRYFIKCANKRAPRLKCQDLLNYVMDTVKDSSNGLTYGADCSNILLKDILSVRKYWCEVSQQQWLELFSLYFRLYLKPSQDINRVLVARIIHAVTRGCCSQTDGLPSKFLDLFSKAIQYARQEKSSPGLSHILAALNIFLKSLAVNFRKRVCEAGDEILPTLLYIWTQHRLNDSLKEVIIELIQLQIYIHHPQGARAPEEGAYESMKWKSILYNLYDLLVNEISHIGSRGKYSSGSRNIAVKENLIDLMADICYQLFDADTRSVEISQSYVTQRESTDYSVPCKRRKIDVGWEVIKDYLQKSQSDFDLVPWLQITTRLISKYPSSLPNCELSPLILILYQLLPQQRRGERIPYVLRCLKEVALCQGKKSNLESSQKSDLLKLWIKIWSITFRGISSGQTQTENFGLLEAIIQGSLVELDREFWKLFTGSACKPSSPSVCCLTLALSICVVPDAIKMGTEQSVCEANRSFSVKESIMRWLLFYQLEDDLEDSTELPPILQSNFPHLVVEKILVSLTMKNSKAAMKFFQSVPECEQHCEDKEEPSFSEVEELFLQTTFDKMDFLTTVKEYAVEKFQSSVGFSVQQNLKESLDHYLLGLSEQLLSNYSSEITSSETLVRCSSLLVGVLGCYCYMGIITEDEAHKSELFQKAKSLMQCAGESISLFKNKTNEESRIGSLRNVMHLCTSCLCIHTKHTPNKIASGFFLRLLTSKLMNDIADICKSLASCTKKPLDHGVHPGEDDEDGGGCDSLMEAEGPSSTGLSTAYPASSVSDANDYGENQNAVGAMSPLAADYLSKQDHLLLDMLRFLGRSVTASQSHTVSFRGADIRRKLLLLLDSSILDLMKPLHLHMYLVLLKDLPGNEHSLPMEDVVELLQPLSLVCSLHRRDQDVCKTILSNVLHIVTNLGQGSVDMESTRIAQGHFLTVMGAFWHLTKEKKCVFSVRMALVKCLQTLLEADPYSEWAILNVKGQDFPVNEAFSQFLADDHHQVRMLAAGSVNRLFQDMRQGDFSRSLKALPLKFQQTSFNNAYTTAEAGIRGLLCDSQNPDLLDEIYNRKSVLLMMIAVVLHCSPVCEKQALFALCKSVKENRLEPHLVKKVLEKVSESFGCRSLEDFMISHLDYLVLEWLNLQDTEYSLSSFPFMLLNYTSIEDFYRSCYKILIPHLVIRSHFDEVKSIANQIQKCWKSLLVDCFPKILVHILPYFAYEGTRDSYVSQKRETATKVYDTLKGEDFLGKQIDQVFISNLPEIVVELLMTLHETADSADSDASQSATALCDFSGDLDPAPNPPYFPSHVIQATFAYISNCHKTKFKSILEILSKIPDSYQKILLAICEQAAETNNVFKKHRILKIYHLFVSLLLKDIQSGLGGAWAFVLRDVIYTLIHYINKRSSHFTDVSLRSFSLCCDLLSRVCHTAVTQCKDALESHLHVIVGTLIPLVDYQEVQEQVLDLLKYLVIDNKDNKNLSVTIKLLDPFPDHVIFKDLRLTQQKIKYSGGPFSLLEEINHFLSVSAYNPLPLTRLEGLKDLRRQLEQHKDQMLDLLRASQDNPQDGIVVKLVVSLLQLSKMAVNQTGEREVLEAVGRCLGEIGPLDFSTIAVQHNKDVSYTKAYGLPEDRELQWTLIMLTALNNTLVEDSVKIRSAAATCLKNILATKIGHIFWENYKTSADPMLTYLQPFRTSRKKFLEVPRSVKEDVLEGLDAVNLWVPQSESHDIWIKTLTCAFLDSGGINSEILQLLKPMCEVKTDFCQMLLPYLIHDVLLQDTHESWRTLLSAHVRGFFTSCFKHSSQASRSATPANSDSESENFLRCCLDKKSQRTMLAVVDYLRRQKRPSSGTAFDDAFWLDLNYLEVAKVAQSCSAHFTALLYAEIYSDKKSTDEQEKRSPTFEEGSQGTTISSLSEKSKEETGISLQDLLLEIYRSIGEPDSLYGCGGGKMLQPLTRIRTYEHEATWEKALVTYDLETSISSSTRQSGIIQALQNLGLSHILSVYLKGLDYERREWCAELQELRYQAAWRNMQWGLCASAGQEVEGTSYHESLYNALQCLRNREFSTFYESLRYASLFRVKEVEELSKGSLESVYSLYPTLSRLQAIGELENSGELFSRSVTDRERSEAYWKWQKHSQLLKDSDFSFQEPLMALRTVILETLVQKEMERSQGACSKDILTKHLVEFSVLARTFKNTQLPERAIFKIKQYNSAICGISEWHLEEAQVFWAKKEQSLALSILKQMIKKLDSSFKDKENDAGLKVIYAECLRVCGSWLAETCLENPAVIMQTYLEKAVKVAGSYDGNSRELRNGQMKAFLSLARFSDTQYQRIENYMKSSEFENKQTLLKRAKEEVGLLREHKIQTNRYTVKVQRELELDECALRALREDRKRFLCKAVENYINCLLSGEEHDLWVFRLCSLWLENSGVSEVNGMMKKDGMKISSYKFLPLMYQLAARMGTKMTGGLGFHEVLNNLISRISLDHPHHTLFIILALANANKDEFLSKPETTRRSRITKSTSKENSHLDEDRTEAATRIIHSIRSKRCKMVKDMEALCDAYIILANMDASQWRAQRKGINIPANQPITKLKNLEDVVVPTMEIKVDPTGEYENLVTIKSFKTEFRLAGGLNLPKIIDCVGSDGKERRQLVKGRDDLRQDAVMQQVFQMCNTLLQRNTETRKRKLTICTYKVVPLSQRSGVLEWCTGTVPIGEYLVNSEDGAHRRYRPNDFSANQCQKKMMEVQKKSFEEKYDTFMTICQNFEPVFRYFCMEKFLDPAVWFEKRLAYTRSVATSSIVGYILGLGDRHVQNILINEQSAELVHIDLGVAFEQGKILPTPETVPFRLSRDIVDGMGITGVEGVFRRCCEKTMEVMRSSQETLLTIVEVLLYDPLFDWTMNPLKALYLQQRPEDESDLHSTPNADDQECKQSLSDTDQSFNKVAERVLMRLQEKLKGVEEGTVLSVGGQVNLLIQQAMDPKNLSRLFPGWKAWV

B1: HA-cGAS in HA-cGAS-reconstituted cGAS-/- immortalized MEFs (enzyme)
chain: not shown
notes: also called nuclear translocated cGAS; not shown: HA tag
B1: no binding.
